Data from PubChem BioAssay AID1745853 (National Center for Advancing Translational Sciences (NCATS), 2022).
The other results are listed elsewhere or left out. Shown are side measurements of this screen, not its main read-out; they come without a call.

Key:
Assay in all cases: Primary Screen for Target Class Profiling of Small Molecule Inhibitors of Methyltransferases
[1] = molecular target: Glycine N-methyltransferase (Homo sapiens) (UniProt Q14749); settings: purified enzyme, MTase-Glo SAH luminescence; measured here: GNMT inhibition; at 40 µM; stronger effect = lower value
Summary of the method: (§1)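 Each enzyme was assayed with SAM and its substrate. SAH formation detected by MTase-Glo luminescence; single-point 40 uM screen[…].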

[2] = molecular target: Guanidinoacetate N-methyltransferase (Homo sapiens) (UniProt Q14353); settings: purified enzyme, MTase-Glo SAH luminescence; measured here: GAMT inhibition; at 40 µM; stronger effect = lower value
Summary of the method: as §1

[3] = molecular target: Histamine N-methyltransferase (Homo sapiens) (UniProt P50135); settings: purified enzyme, MTase-Glo SAH luminescence; measured here: HNMT inhibition; at 40 µM; stronger effect = lower value
Summary of the method: as §1

[4] = molecular target: Nicotinamide N-methyltransferase (Homo sapiens) (UniProt P40261); settings: purified enzyme, MTase-Glo SAH luminescence; measured here: NNMT inhibition; at 40 µM; stronger effect = lower value
Summary of the method: as §1

[5] = molecular target: Phenylethanolamine N-methyltransferase (Homo sapiens) (UniProt P11086); settings: purified enzyme, MTase-Glo SAH luminescence; measured here: PNMT inhibition; at 40 µM; stronger effect = lower value
Summary of the method: as §1
% is scaled to controls: 0 for no effect and ±100 for the full control effect.

| SMILES | activity change, negative = inhibition [1] [%] | activity change, negative = inhibition [2] [%] | activity change, negative = inhibition [3] [%] | activity change, negative = inhibition [4] [%] | activity change, negative = inhibition [5] [%] |
| --- | --- | --- | --- | --- | --- |
| CNC(=O)Cn1nc(C2CCN(C(=O)c3ccccc3F)CC2)c2c1CCOC2 | -0.922 | -2.33 | 0.89 | -8.75 | -2.91 |
| Cc1c(CNC(=O)c2ccccc2C2CCNC2)oc2ccccc12 (stereo not drawn) | -5.08 | -7.08 | -14.3 | -11.7 | -28.6 |
| COc1ccc2cc3n(c2c1)CC(C)(C(=O)NC1CCCCCC1)N(CCN1CCN(C)CC1)C3=O (stereo not drawn) | 9.29 | 0 | 10.3 | 11.6 | 2.79 |
| Cc1nn(C)c(COc2ccc(N3CCN(S(=O)(=O)N(C)C)CC3)cc2)c1-c1cccc2c(CCCOc3cccc4ccccc34)c(C(=O)O)n(CCN3CCOCC3)c12 | 6.83 | 9.24 | 7.78 | -4.7 | 3.49 |
| COc1ccc(OC)c(CN2C(=O)c3cc4ccccc4n3CC2(C)C(=O)NCc2ccccc2)c1 (stereo not drawn) | -1.31 | 2.81 | -3.71 | 3.82 | -6.26 |
| Cc1ccc(CN2CCOCCNC(=O)[C@H]3CCCC[C@H]32)o1 | -5.73 | -2.63 | -0.035 | -6.9 | 10.5 |
| CCc1ccccc1NC(=O)Cn1nc2n(C)c(=O)c3ccc(C(=O)NC(C)CC)cc3n2c1=O (stereo not drawn) | 6.45 | 7.05 | 11.3 | -1.76 | 4.31 |
| C[C@H]1CC[C@@]2(OC1)O[C@H]1CC3[C@@H]4CC[C@@H]5C[C@@H](O[C@@H]6O[C@H](CO)[C@@H](O[C@@H]7O[C@H](CO[C@@H]8OC[C@@H](O)[C@H](O)[C@H]8O)[C@@H](O[C@@H]8O[C@H](CO)[C@H](O)[C@H](O)[C@H]8O)[C@H](O)[C@H]7O)[C@H](O)[C@H]6O)CC[C@]5(C)C4CC[C@]3(C)[C@H]1[C@@H]2C (stereo partly drawn) | -1.93 | -2.84 | 2.98 | -4.76 | 4.15 |
| COc1ccnc2[nH]cc(C(=O)C(=O)N3CCN(C(=O)c4ccccc4)C[C@H]3C)c12 | – | -27.5 | – | -28.8 | -5.55 |
| C=C1[C@@H](C)[C@H]2[C@H](Cc3c[nH]c4ccccc34)NC(=O)[C@]23C(=O)/C=C/C(=O)[C@H](O)/C(C)=C\[C@@H](C)C/C=C/[C@H]3[C@@H]1O | 3.85 | 6.03 | 5.81 | -8.83 | 5.66 |
| O=C1CN(Cc2ccccc2F)S(=O)(=O)c2ccccc2N1Cc1ccc(F)cc1 | -5.59 | 0 | 3.48 | -11.8 | -10.6 |
| Fc1ccc(Nc2nc(-c3ccccc3F)no2)cc1 | -10.4 | -1.94 | -3.8 | -18.8 | -7.39 |
| CN(CC(=O)N[C@H]1CCOC[C@H]1C1CCOCC1)Cc1ccncc1 | -1.79 | -2.16 | 1.32 | -2.46 | -0.561 |
| COc1ccc(CCNS(=O)(=O)c2ccc3oc(=O)c4ncn(C)c4c3c2)cc1OC | -2.98 | 0 | 4.18 | 9.39 | -3.41 |
| CCC(C)NC(=O)c1ccc2c(=O)n(CC(C)C)c3nnc(SCC(=O)NC(C)(C)C)n3c2c1 (stereo not drawn) | 7.18 | 1.84 | 12.6 | 4.33 | 7.01 |
| CN(C)CC1(O)CCC2(CCN(C(=O)c3nccc4ccccc34)CC2)CC1 | -1.43 | -4.28 | -3 | -4.77 | -9.43 |
| CC(=O)NCC(=O)NC1CC(C)(C)Cc2nc(N(C)Cc3ccccc3)ncc21 (stereo not drawn) | -2.77 | -3.64 | -1.89 | -8.22 | -2.8 |
| NCc1ccc(Oc2ncnc3ccccc23)cc1 | -5.88 | 0.794 | -7.24 | -1.17 | -2.81 |
| O=C(OC1C[C@H]2CC[C@@H](C1)[N+]21CCCC1)C(O)(c1ccccc1)c1ccccc1 (stereo partly drawn) | -2.55 | 0.078 | -0.257 | -14.5 | 1.65 |
| CCOC(=O)c1cc2n(n1)CC(C)(C(=O)NC1CCCCC1)N(c1ccc(NC(C)=O)cc1)C2=O (stereo not drawn) | 4.34 | 1.71 | 3.34 | 9.03 | 3.6 |

| SMILES | activity change, negative = inhibition [1] [%] | activity change, negative = inhibition [2] [%] | activity change, negative = inhibition [3] [%] | activity change, negative = inhibition [4] [%] | activity change, negative = inhibition [5] [%] |
| --- | --- | --- | --- | --- | --- |
| CC1(C)C(=O)N(CCN2CCC(C(=O)c3ccc(F)cc3)CC2)c2ccccc21 | 3.62 | 15.2 | 10.8 | -8.44 | 3.55 |
| O=C1COC[C@H]([C@H](O)c2ccc(NC(=O)C3CCCC3)cc2)N1 | -4.3 | -7.14 | -1.44 | -2.39 | -4.18 |
| CC1(c2noc(C3CC3)n2)CCN(C(=O)CCc2nc3ccc(Cl)cc3[nH]2)CC1 | -4.97 | -6.62 | -0.675 | -19.3 | -11.1 |
| COC(=O)c1cc2n(n1)CC(C)(C(=O)NC1CCCCC1)N(c1cc(OC)cc(OC)c1)C2=O (stereo not drawn) | 6.32 | 0 | 9.9 | 10.2 | 6.36 |
| O=C(c1ccccc1)c1c(O)cc(O)cc1O[C@@H]1O[C@H](CO)[C@@H](O)[C@H](O)[C@H]1O | 0 | -10.3 | 3.33 | -17.6 | -3.21 |
| CCn1nc(CC(C)C)cc1C(=O)N1CCN(S(=O)(=O)CC)CC1 | -3.84 | -9.32 | -2.27 | -9.59 | -9.13 |
| COc1ccccc1C(=O)N1CC(Oc2ccc(-c3noc(-c4ccncc4)n3)cc2)C1 | -15.1 | -1.86 | -2.62 | -17 | -8.65 |
| CCOc1ccc(C(=O)N2CCCC3(C2)NC(=O)N(Cc2cc(C)ccc2C)C3=O)cc1 (stereo not drawn) | -2.82 | 0.342 | -0.189 | -6.54 | 2.71 |
| CCc1ccc(S(=O)(=O)N2CCC(C3CCN(C(C)=O)CC3)C2)cc1 (stereo not drawn) | -1.25 | 1.51 | 14.5 | 3.08 | 9.75 |
| CC(C)CNC(=O)N1CCC(Nc2cccnc2)C1 (stereo not drawn) | -3.62 | -1.66 | -0.931 | -5.21 | -3.58 |
| CCOC(=O)c1cc2n(n1)CC(C)(C(=O)NCc1ccccc1OC)N(c1ccc3c(c1)OCO3)C2=O (stereo not drawn) | 7.05 | 0 | 13.7 | 13.6 | 6.7 |
| Cc1ccc(C(C(=O)NCc2ccc(O)cc2)N(C)C)cc1 (stereo not drawn) | -0.773 | -1.76 | -1.61 | -0.728 | -0.611 |
| Cc1ccc(Nc2ccn3c(=O)n(CC(=O)Nc4cc(F)ccc4C)nc3n2)cc1 | -1.91 | 3.91 | -11.3 | -10 | -5.72 |
| Cc1cc2c(cc3n2CC(C)(C(=O)NC2CCCCC2)N(Cc2ccccc2F)C3=O)o1 (stereo not drawn) | 2.67 | 0 | 6.17 | -3.46 | -0.676 |
| O=C(Cn1ccc2cc(S(=O)(=O)N3CCCC3)ccc21)NCc1cccc(Cl)c1 | -3.85 | 2.42 | -4.69 | -13.9 | -7.51 |
| O=C(NC1C[C@H]2CC[C@@H](C1)N2S(=O)(=O)c1cccs1)c1ccncc1 (stereo partly drawn) | -7.59 | 1.94 | -1.98 | -5.45 | -1.93 |
| CCCOc1ccc(CN2C(=O)c3cc4sccc4n3CC2(C)C(=O)NC2CCCC2)cc1 (stereo not drawn) | -4.22 | 2.98 | 1.44 | -1.92 | -3.44 |
| O=C(NCCc1ccccc1)c1ccc2c(=O)nc3c(-c4cccc(F)c4)n[nH]n3c2c1 | 2.72 | 3.89 | 3.08 | 2.23 | -1.78 |
| CCCC1c2ccc(C)n2CCN1C(=O)Nc1ccc(C)cc1C (stereo not drawn) | -1.08 | 2.56 | -1.38 | -1.76 | -2.35 |
| COc1ccc2c(c1)CC(NS(=O)(=O)c1cc(Cl)ccc1OC)CO2 (stereo not drawn) | -4.12 | 2.1 | 6.84 | -0.024 | 2.77 |

| SMILES | activity change, negative = inhibition [1] [%] | activity change, negative = inhibition [2] [%] | activity change, negative = inhibition [3] [%] | activity change, negative = inhibition [4] [%] | activity change, negative = inhibition [5] [%] |
| --- | --- | --- | --- | --- | --- |
| CC(C)NC(=O)CCc1cc2n(n1)CCN(C(=O)[C@H]1CCCO1)C2 | 0.426 | -0.432 | -0.116 | -0.069 | 0.194 |
| C[C@H](CCC(=O)O)[C@H]1CC[C@H]2[C@@H]3C[C@H](O)[C@@H]4C[C@H](O)CC[C@]4(C)[C@H]3CC[C@]12C | -10.3 | -8.95 | 7.33 | -24 | -1.48 |
| COc1ccccc1CNC(=O)C1(C)Cn2c(cc3ccccc32)C(=O)N1C1CCN(Cc2ccccc2)CC1 (stereo not drawn) | -2.53 | 3 | -3.7 | 0.382 | -1.71 |
| O=C(CCc1nnc2n(Cc3ccc(Cl)cc3)c(=O)c3ccccc3n12)NCc1cccnc1 | -4.07 | 2.85 | 2.68 | 7.5 | -1.61 |
| CCCn1c(=O)c2ccccc2n2c(SCc3ccc(F)cc3Cl)nnc12 | -14.3 | 0 | -7.9 | -15.9 | 2.67 |
| COC(=O)c1ccc([C@H]2Nc3ccc(S(=O)(=O)Nc4cccc(C)c4)cc3[C@H]3C=CC[C@H]32)cc1 | -12.6 | 0 | -17.7 | -14.8 | -17.4 |
| O=C1CN(Cc2ccc(-c3ccccc3)cc2)CCN1c1ccc(Cl)nn1 | -9.04 | -7.09 | -2.67 | -8.6 | -7.99 |
| Cc1cccc(N2C(=O)c3cc4ccccc4n3CC2(C)C(=O)NCCC(C)C)c1C (stereo not drawn) | 3.38 | 2.39 | 5.4 | 5.24 | -0.233 |
| Cc1cc(N2CCC3(CCCN(C)C3=O)C2)c2ccccc2n1 (stereo not drawn) | -6.3 | -9.19 | -43.6 | -16.8 | -11.8 |
| COc1ccc(CCN2C(=O)c3cc4sccc4n3CC2(C)C(=O)NC2CCCCC2)cc1OC (stereo not drawn) | -0.874 | 0 | 5.37 | -15 | 2.29 |
| CCCCN1C(=O)c2cc(C(=O)Nc3ccc(C)cc3C)nn2CC1(C)C(=O)NC1CCCC1 (stereo not drawn) | 7.2 | 3.19 | -7.78 | 6.95 | 5.87 |
| C=CCNC(=O)c1cn2c(n1)CN(C(C)=O)CC2 | 0.5 | 2.49 | 2.38 | -8.03 | 14.1 |
| COc1ccccc1CNC(=O)C1(C)Cn2c(cc3ccccc32)C(=O)N1Cc1cccc(C)c1 (stereo not drawn) | 5.07 | 1.71 | 8.1 | 7.03 | -0.46 |
| COc1ccc(OC)c(CCN2C(=O)c3cc4sccc4n3CC2(C)C(=O)NC2CCCCC2)c1 (stereo not drawn) | -2.17 | 0 | 0.609 | 0.489 | -1.81 |
| O=C(NCc1nnc2n1CCCC2)[C@H]1CNC[C@H](C(=O)N2CCOCC2)C1 | -1.71 | -1.46 | 0.394 | -3.49 | -0.465 |
| CCCN1C(=O)c2cc(C(=O)NCCc3ccccc3)nn2CC1(C)C(=O)NC1CCCC1 (stereo not drawn) | 5.31 | 0 | -15.1 | 1.81 | 2.7 |
| Cc1cccc(NC(=O)N2CCn3nnc(CCC(=O)NC4CC4)c3C2)c1 | -2.05 | -12.2 | -4.7 | -4.31 | -2.72 |
| CC1CCN(S(=O)(=O)c2ccc3c(c2)oc(=O)n3CC(=O)N2CCN(Cc3ccccc3)CC2)CC1 | -8.35 | 3.26 | -2.63 | -0.361 | -4.8 |
